Results on 172 sequences are retold here after PMC5836133.

The list shows a part of the results. At the low end of the ranking the order means little.

The test system of the test is T1, GST-NbGlk1(82-244).
T1 sequence: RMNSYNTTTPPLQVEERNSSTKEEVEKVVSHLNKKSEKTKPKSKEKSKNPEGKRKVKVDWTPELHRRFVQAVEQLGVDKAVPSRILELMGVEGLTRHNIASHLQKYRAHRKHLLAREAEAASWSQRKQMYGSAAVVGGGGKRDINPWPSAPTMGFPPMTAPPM
Put plainly: protein-binding microarray.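 Also: rank-based score ranging −0.5 to +0.5 with E above 0.45 taken as significant binding.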 As to conditions: NbGlk1 is a Golden2-like transcription factor of Nicotiana benthamiana; high values mean tight binding; most listed sequences are background and not binding sites; double strand, one strand shown.
ACTCACAT registered a binding signal of 0.0783 E-score.
In turn, ACATTAAC registered a binding signal of 0.0163 E-score.
For the sequence ATAATTCA, the binding signal was 0.154 E-score.
With AACACCCG the figure was -0.237 E-score; with AGTGTATC, 0.117 E-score.
Consider AATGCACT, for which the binding signal was -0.0512 E-score.
In turn, AACGTTTA came in with a binding signal of -0.049 E-score.
In the case of ATGTCGAC, the binding signal is -0.0465 E-score.
With ACTGGGCC the figure was -0.235 E-score.
CACTATCA had a binding signal of 0.0815 E-score.
ACACCCTG had a binding signal of -0.188 E-score.
With AATGTCCA the figure was -0.0844 E-score; with AAGTGTGT, -0.126 E-score.
ACGCGTCG displayed a binding signal of 0.0588 E-score.
For the sequence AACCCTAC, the binding signal is -0.0834 E-score.
AAAATAAT displayed a binding signal of 0.205 E-score.
As to AATTCTCC, the binding signal came out at 0.151 E-score.
In turn, ACACGATG registered a binding signal of -0.0775 E-score.
AGTCCGTG showed a binding signal of -0.0354 E-score.
Regarding ATGAACAA, the binding signal came out at 0.0497 E-score.
ATCCATCG: the binding signal came out at 0.137 E-score.
AGACCGGC displayed a binding signal of -0.248 E-score.
With AATTGAGC the figure was -0.0944 E-score.
With ACATGGGG the figure was -0.0997 E-score; with ACTCCTGG, -0.234 E-score; with CACGGGCG, -0.13 E-score.
With CAAATGGA the figure was -0.059 E-score.
The sequence ATTCCAGC registered a binding signal of 0.00815 E-score.
In turn, ACATGGTA came in with a binding signal of -0.0226 E-score.
With ATTCTGCA the figure was 0.266 E-score; with AACAGGCG, -0.165 E-score; with AGTATCAT, 0.11 E-score.
With CAAAGTTC the figure was -0.0425 E-score; with AGTATAAT, 0.233 E-score.
With AAGCAAGG the figure was -0.0556 E-score.
ACCTGGAC had a binding signal of -0.299 E-score.
Consider AACGAAGA, for which the binding signal is 0.0508 E-score.
Regarding AATTATGT, the binding signal was found to be 0.0878 E-score.
With ATAATGCG the figure was 0.0234 E-score.
Sequence AATTCCCA registered a binding signal of 0.151 E-score.
With ACTGGAAA the figure was 0.121 E-score; with ACAGACCG, -0.0783 E-score; with ACGCGTCT, -0.165 E-score.
For ACAAGCTA, the binding signal is -0.0787 E-score.
Regarding AACATAAC, the binding signal is -0.0047 E-score.
Sequence ACGTAGGG came in with a binding signal of -0.118 E-score.
The sequence AGCCGTAT displayed a binding signal of 0.0187 E-score.
Take ATCGTGCC: the binding signal turned out to be 0.155 E-score.
Regarding AGTCACGG, the binding signal was -0.123 E-score.
ATAATCGG registered a binding signal of 0.097 E-score.
In turn, CACTAAGC registered a binding signal of -0.0943 E-score.
As to ATTGAATA, the binding signal was determined as 0.103 E-score.
As to ATTAGTAG, the binding signal turned out to be 0.0824 E-score.
Sequence AAGCATCC registered a binding signal of -0.119 E-score.
Turning to ACGAAATG, the binding signal is 0.0869 E-score.
With AGGAGACA, the binding signal is -0.131 E-score.
The sequence AAGATCAC registered a binding signal of 0.225 E-score.
The sequence AATATTGG gave a binding signal of 0.202 E-score.
AGATGCGC showed a binding signal of -0.0729 E-score.
Take AACAAAGG: the binding signal was -0.0804 E-score.
AGACATAA registered a binding signal of -0.193 E-score.
With ATACGGAC the figure was 0.123 E-score; with CACTCACG, -0.0672 E-score; with AGCGGGAA, -0.158 E-score.
In the case of ACGTCGGG, the binding signal is -0.124 E-score.
In turn, AGACCCAC came in with a binding signal of -0.267 E-score.
Sequence AGTTGTAC registered a binding signal of -0.0969 E-score.
With ATTGAGGC the figure was -0.0636 E-score.
The sequence ATGGATAC returned a binding signal of 0.25 E-score.
With ACGTGACG the figure was -0.254 E-score.
Sequence ACAGACTC had a binding signal of -0.339 E-score.
As for ATTTCCGG, the binding signal came to 0.295 E-score.
With AACGGGAC the figure was -0.221 E-score; with AGTTAGAA, -0.0448 E-score.
On to CACCGTGC, for which the binding signal is -0.175 E-score.
Take CAATCGAG: the binding signal stood at 0.126 E-score.
As for AGGTAGTC, the binding signal is -0.141 E-score.
Sequence ATTCCCAG registered a binding signal of 0.291 E-score.
Sequence ACGTCCGC showed a binding signal of -0.181 E-score.
AAATAACT: the binding signal was 0.127 E-score.
AGGTCATA: the binding signal is -0.111 E-score.
Take ATGGGTAG: the binding signal was -0.0489 E-score.
In turn, ATTATCCC gave a binding signal of 0.261 E-score.
Take AAGGAGAT: the binding signal was 0.261 E-score.
In turn, AGCACCAC showed a binding signal of -0.232 E-score.
Sequence ATGATCTG displayed a binding signal of 0.0086 E-score.
With AAAAATCA the figure was 0.336 E-score; with AACGAACT, -0.101 E-score.
ACCGTTCT came in with a binding signal of -0.0678 E-score.
Regarding AGACAGGG, the binding signal is -0.139 E-score.
AGAAATGC came in with a binding signal of -0.000669 E-score.
Sequence ATCTCAGG had a binding signal of 0.277 E-score.
Sequence ATTCAAAG displayed a binding signal of 0.0452 E-score.
With ATGGGATG, the binding signal is -0.148 E-score.
In turn, AAATTGCA showed a binding signal of 0.121 E-score.
Sequence ACGCCCTC showed a binding signal of -0.204 E-score.
AGCTACGC registered a binding signal of -0.163 E-score.
AGCACCTA had a binding signal of -0.0678 E-score.
AGCCCTTC registered a binding signal of -0.257 E-score.
AGCTCTAT displayed a binding signal of -0.181 E-score.
For AATCACAC, the binding signal came to 0.286 E-score.
With ACGTGAGC the figure was -0.0927 E-score.
With AACTCCTT, the binding signal was -0.104 E-score.
Turning to AAGCGTTA, the binding signal is 0.0051 E-score.
With AACGTATC the figure was 0.322 E-score; with AGCGAGGG, -0.248 E-score.
The sequence ACTTCGTC yielded a binding signal of -0.183 E-score.
As to ACACGGAA, the binding signal was found to be 0.0504 E-score.
Take ACGTGATC: the binding signal is 0.232 E-score.
ATAAATCG came in with a binding signal of 0.182 E-score.
For the sequence AGAGGTGG, the binding signal was -0.153 E-score.
On to ATATGAGA, for which the binding signal is 0.231 E-score.
For ATCCGGCC, the binding signal was 0.258 E-score.
Consider AGTGGAAC, for which the binding signal was -0.109 E-score.
AAAGACGC: the binding signal was -0.162 E-score.
Consider ATTGTCTC, for which the binding signal was found to be 0.105 E-score.
For CAAGAGGA, the binding signal was 0.0323 E-score.
ACGCGTGA gave a binding signal of 0.109 E-score.
Regarding ACAGTGCC, the binding signal was -0.193 E-score.
With AGTACATG the figure was -0.0841 E-score; with AGAAACAA, -0.0208 E-score; with AGATAGAG, -0.0715 E-score.
CACATTAG yielded a binding signal of -0.00304 E-score.
In turn, ATCGTTAG gave a binding signal of -0.0561 E-score.
Take ATATCGGC: the binding signal is 0.354 E-score.
Sequence CAAGTACA gave a binding signal of -0.00628 E-score.
Sequence ATTTATAA gave a binding signal of 0.229 E-score.
With ACTATGCA the figure was 0.115 E-score.
ACACCATA: the binding signal was determined as 0.0878 E-score.
With ACATTTCC, the binding signal amounted to 0.0737 E-score.
AATATAGT had a binding signal of 0.131 E-score.
ATAGTCAA returned a binding signal of 0.0472 E-score.
With AATTCTAA the figure was 0.19 E-score; with AGATTTGA, 0.327 E-score; with AAATCTAA, 0.45 E-score.
Consider AGGACTTG, for which the binding signal is -0.1 E-score.
Regarding AATACATA, the binding signal came to 0.161 E-score.
AACACCAC gave a binding signal of -0.105 E-score.
As to AAATCCGG, the binding signal is 0.441 E-score.
Regarding AGCCATAC, the binding signal was -0.154 E-score.
With AAGTAACC the figure was -0.079 E-score; with ACCACGAA, -0.0301 E-score.
Take ATTACTGG: the binding signal was determined as 0.107 E-score.
ACTGATCG displayed a binding signal of 0.145 E-score.
With AGTAGGCC the figure was -0.257 E-score; with ACGCGCGT, 0.045 E-score.
Sequence ACAGGCAA showed a binding signal of 0.105 E-score.
With ACGCGGAT the figure was 0.235 E-score; with ACCGGTAG, -0.0228 E-score; with ACTAACAA, -0.0462 E-score.
CACATTCG gave a binding signal of 0.0521 E-score.
With AAGCGGGC the figure was -0.228 E-score.
With ACGTATAT the figure was 0.133 E-score.
With ACCATTCA the figure was 0.0128 E-score.
In turn, ACAGCTGT showed a binding signal of -0.112 E-score.
With AAATTACA the figure was 0.281 E-score; with CAGAGAAG, 0.0407 E-score; with CACTTAAC, -0.0168 E-score.
As to AGTCCTAT, the binding signal was -0.175 E-score.
Take ACGCTCAA: the binding signal was -0.0262 E-score.
With ACCCGAGT the figure was -0.173 E-score; with ACGGCAAG, -0.0798 E-score; with ATCACCTG, -0.0338 E-score.
The sequence ATCACAGC came in with a binding signal of 0.171 E-score.
ATTCGAGG registered a binding signal of 0.0807 E-score.
For AGTTACCA, the binding signal was -0.0411 E-score.
Take ATATATAC: the binding signal was 0.227 E-score.
With AATGAGGC the figure was -0.172 E-score; with ACTATGGG, -0.0927 E-score; with ATACCACA, 0.0878 E-score.
With ATTTGTCC the figure was 0.0894 E-score.
As to ACCGCCAT, the binding signal is -0.0581 E-score.
